# Measurements reported in PubChem BioAssay AID624171 (National Center for Advancing Translational Sciences (NCATS), 2012).
# Screen size: about 410,000 compounds; about 1,200 (0.29%) were called active. Inconclusive results, whose numbers are uncertain, are shown with a selection of clear calls. Calls come from the whole dose curve; as a rule, active = well fitted activation curve with a large enough effect; inconclusive = small, poorly fitted or top-dose-only effect; inactive = flat fitted curve, though single readings scatter. Potencies of inconclusive entries are doubtful fits and often do not repeat.
# Test: qHTS of Nrf2 Activators; note: nearly all actives have a fitted effect of over 65% in size; for activation: % of control where 0% means no effect
# Conditions: AREc32 ARE-luciferase reporter (MCF7-derived line), luminescence, 24 h; activation: at 46.1 µM (top of the series)
# Method in brief: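 Each well held 1000 AREc32 cells, which were incubated with compound for 24 hr at 37 deg C after overnight attachment, and ARE reporter activity was quantified by firefly luciferase luminescence.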
# Potency is the fitted concentration of half-maximal effect; tags give direction and shape of the fitted curve.
Structure (SMILES),Potency,activation
OCC1OC(n2cnc3c(NCc4ccccc4O)ncnc32)C(O)C1O (stereo not given),"inconclusive: 8.91 µM [activator, partial curve]",
COc1ccc(/C(C)=N/NC(=O)CNC(=O)/C=C\c2ccco2)cc1,"inconclusive: 17.8 µM [activator, single point]",
Cc1cccc(C(=O)Oc2csc(=S)n2C(=O)c2cccc(C)c2)c1,,inactive: 0.118%
CC(C)c1onc(C(=O)N(C)C2CCCCC2)c1[N+](=O)[O-],"inconclusive: 17.8 µM [activator, single point]",
Brc1ccc2nc(-c3ccco3)c(Cc3ccccc3)n2c1,"inconclusive: 11.2 µM [activator, partial curve]",
c1coc(-c2nnc(-c3cccs3)o2)c1,"inconclusive: 15.8 µM [activator, partial curve, poor fit]",
COc1ccc(O)c(/C=N/N=C2/C(=O)Nc3ccccc32)c1,"inconclusive: 17.8 µM [activator, single point]",
COc1cc(C(=O)NC(=S)NNC(=O)c2cnccn2)cc(OC)c1OC,,inactive: 0.859%
N#Cc1cccn1-c1nccc(-c2cccs2)n1,active: 4.47 µM,
CCC(CO)Oc1cc(NCc2ccc(Cl)cc2Cl)c2ncn(C(C)C)c2c1 (stereo not given),,inactive: -2.56%
Clc1ccccc1-c1nc2ccccc2[nH]1,,inactive: 5.51%
c1ccc(-c2cc(-c3ccccc3)ncn2)cc1,"inconclusive: 20 µM [activator, partial curve, poor fit]",
Cc1ccc(O)c(CO)n1,,inactive: -0.176%
Cc1nc2ccn(Cc3ccccc3)c(=O)c2cc1C(=O)N1CCN(c2ccccc2)CC1,,inactive: -0.791%
C/C(=C\C(=O)c1ccc(C)o1)Nc1ccc2c(c1)OCO2,,inactive: 2.63%
CCCc1c(-c2ccc(Cl)cc2)ncn1Cc1ccccc1OC,,inactive: -0.674%
Fc1cccc(NCCc2c[nH]c3ccccc23)n1,,inactive: 5.15%
O=C(/C=C/c1ccncc1)c1ccc(NC(=O)c2ccccc2F)cc1,"inconclusive: 22.4 µM [activator, single point]",
O=S(=O)(NCC1CCCO1)c1ccccc1 (stereo not given),,inactive: -1.01%
Cc1cc(Cl)ccc1OCC(=O)NCC(c1cccs1)N1CCOCC1 (stereo not given),,inactive: 0.126%
O=C1C(=Cc2ccc(F)cc2)Cc2ccccc21,"inconclusive: 17.8 µM [activator, single point]",
CN(C)CCC1(C2=CCCC2)CC/C(=C/c2ccc(Cl)cc2)C1=O (stereo not given),"inconclusive: 31.6 µM [activator, single point]",
CCOC(=O)NC(NCCc1ccccc1)(C(F)(F)F)C(F)(F)F,,inactive: -1.19%
O=C1C=CC(=O)N1N(c1ccccc1)c1ccccc1,"inconclusive: 12.6 µM [activator, single point]",
COc1ccc(-c2nc3ccccn3c2Cl)cc1,"inconclusive: 3.16 µM [activator, partial curve, poor fit]",

Structure (SMILES),Potency,activation
COC/C=C/C1=CC2=CC(=O)C(C)(OC(=O)c3cnc4ccccc4n3)C(=O)C2=CN1Cc1ccccc1 (stereo not given),"inconclusive: 17.8 µM [activator, single point]",
C(=N\Nc1cc(N2CCCCC2)ncn1)/c1ccco1,"inconclusive: 0.562 µM [activator, full curve, poor fit]",
O=C(N/N=C/C(Cl)=C\c1ccccc1)c1ccco1,"inconclusive: 20 µM [activator, partial curve, poor fit]",
C[C@@]12C(C[C@H](O)[C@@]34C[C@@H](CCC13)[C@@H](CO)C4=O)[C@](C)(C(=O)O)CC[C@@H]2O (stereo not given in full),"inconclusive: 20 µM [activator, single point]",
N#Cc1ccccc1OCC(=O)Nc1nc(-c2ccccn2)cs1,,inactive: 14.1%
O=C(O)CCc1ccc(-c2ccc(F)cc2)n1CC1CCCO1 (stereo not given),,inactive: -0.605%
NC(=O)c1ccc(-n2nnnc2Oc2ccccc2)cc1,"inconclusive: 17.8 µM [activator, single point]",
COc1ccc(CN2C(=O)C(CC(=O)NCCCN(C)C)CC(C(=O)N(C)C)=C2C)cc1 (stereo not given),,inactive: -0.0161%
N#Cc1c(-c2ccco2)cc(-c2cccnc2)nc1N,"inconclusive: 14.1 µM [activator, partial curve, poor fit]",
CC(OC(=O)/C=C/c1ccco1)C(=O)Nc1cccc([N+](=O)[O-])c1 (stereo not given),"inconclusive: 14.1 µM [activator, partial curve, poor fit]",
CCC(C)[C@H](N)c1nnc(SCc2ccc(Cl)c(Cl)c2)o1 (stereo not given in full),,inactive: 5.69%
CCOC(=O)CSc1cccc2cccnc12,"inconclusive: 20 µM [activator, single point]",
Cc1cc(-c2cccs2)nc(-n2cccc2)n1,"inconclusive: 7.08 µM [activator, full curve, poor fit]",
COc1ccc2nc(NC(=O)c3ccc([N+](=O)[O-])o3)sc2c1,"inconclusive: 3.55 µM [activator, partial curve, poor fit]",
CC(=O)N1CCN(C(=O)CC2OC(=O)c3ccccc32)CC1 (stereo not given),"inconclusive: 28.2 µM [activator, single point]",
COc1ccccc1N=C(C)C1=C(O)CSC1=O,"inconclusive: 31.6 µM [activator, single point]",
Cc1ccc(C(=O)Nc2cc([N+](=O)[O-])ccc2C)cc1,"inconclusive: 20 µM [activator, single point]",
Cn1c(/C=C/c2ccc(Cl)cc2Cl)c([N+](=O)[O-])c(=O)n(C)c1=O,"inconclusive: 3.16 µM [activator, partial curve, poor fit]",
CC(=O)Oc1ccc(C#C/C=C2\c3ccccc3C(=O)N2c2ccccc2)cc1,"inconclusive: 12.6 µM [activator, partial curve]",
CCCCOC(=O)c1ccc(NC(=O)c2c(Cl)ccc(Cl)c2OC)cc1,,inactive: -0.206%
Cc1ccccc1N1Cc2ccccc2C1=O,,inactive: 0.31%
CNC(=S)N(CCc1ccc(S(N)(=O)=O)cc1)C1CC(=O)N(c2ccccc2F)C1=O (stereo not given),"inconclusive: 31.6 µM [activator, single point]",
O=C(CNc1cccc2ccccc12)N/N=C/C=C/c1ccco1,"inconclusive: 3.55 µM [activator, partial curve, poor fit]",
O=c1[nH]ncc(N/N=C\c2cccs2)c1Cl,active: 4.47 µM,
O=C(NC1CCCC1)c1cc(-c2ccccc2Cl)on1,"inconclusive: 11.2 µM [activator, partial curve, poor fit]",

Structure (SMILES),Potency,activation
Cc1nn(C)c(Sc2ccccn2)c1[N+](=O)[O-],"inconclusive: 14.1 µM [activator, single point]",
Cc1cc(-c2n[nH]c(=S)n2/N=C/C(Cl)=C/c2ccccc2)n[nH]1,"inconclusive: 2.82 µM [activator, partial curve, poor fit]",
COc1ccc(/C=N/n2c(SC)nnc2-c2ccccc2)cc1C,,inactive: -0.344%
Cc1cc2nc3c(nc2cc1C)C1(C(=O)O)CCC3(C)C1(C)C (stereo not given),,inactive: -0.066%
O=C(Nc1ccc(F)cc1)Nc1nnc(SCC(=O)N2CCCCC2)s1,,inactive: -0.239%
Clc1ccc(-c2c[nH]c3ccccc23)nn1,"inconclusive: 12.6 µM [activator, partial curve]",
O=C(N[C@@H]1CCC(=O)N(CC[C@H](Sc2ccc(Br)cc2)c2ccccc2)CC1)OCc1ccccc1,,inactive: -0.297%
COc1cccc(NC(=O)CN(C)C(=O)c2cc(C)oc2C)c1,,inactive: -0.67%
CCc1ccccc1N(C)C(=O)c1cc2c(Cl)nc3ccc(C)cc3c2s1,,inactive: -0.221%
COC(=O)c1sccc1NC(=O)CC1C(=O)NCCN1C(=O)Nc1cc(Cl)ccc1OC (stereo not given),"inconclusive: 10 µM [activator, partial curve]",
O=C1Nc2ccc(Br)cc2/C1=C/C(=O)c1ccccc1,"inconclusive: 11.2 µM [activator, partial curve]",
Fc1cccc(NC(=S)NNc2ccccc2)c1,"inconclusive: 17.8 µM [activator, single point]",
CCc1cc(=O)oc2cc(C)cc(OC(C)C(=O)NC3CC(C)(C)NC(C)(C)C3)c12 (stereo not given),"inconclusive: 5.62 µM [activator, single point]",
Cn1c(=NC(=O)c2ccco2)sc2ccccc21,"inconclusive: 0.891 µM [activator, full curve, poor fit]",
Cc1ccc(CN(C(=O)N2CCN(C)CC2)S(=O)(=O)c2ccc(C)cc2)cc1,,inactive: -0.436%
N#CCSc1nnc(-c2sc3ccccc3c2Cl)o1,"inconclusive: 17.8 µM [activator, single point]",
CCC(=O)Nc1c2c(nn1-c1ccc(OC)cc1)CSC2,,inactive: 0.0677%
CC(/C=N/NC(=O)CSc1nc2ccccc2n1C)=C\c1ccco1,active: 12.6 µM,
S=C(NCCC(c1ccccc1)c1ccccc1)Nc1cccc(Cl)c1,,inactive: 8.29%
O=C(NCCc1ccccn1)c1c(-c2ccsc2)sc2ccccc12,"inconclusive: 4.47 µM [activator, full curve]",
O=C(Nc1cccnc1Cl)c1cc2ccccc2o1,"inconclusive: 11.2 µM [activator, partial curve, poor fit]",
CCOC1=C/C(=C/c2c(N)n3nc(-c4ccccc4)sc3nc2=O)C=CC1=O,"inconclusive: 17.8 µM [activator, single point]",
COc1ccc2cc1Oc1ccc(cc1)C[C@H]1c3cc(c(OC)cc3CCN1C)Oc1c(OC)c(OC)cc3c1[C@@H](C2)N(C)CC3,,inactive: 11%
CN1CCCC1CCNc1ccc2c(=O)c3ccccc3oc2c1 (stereo not given),"inconclusive: 1 µM [activator, full curve, poor fit]",
O=C1C(=O)N(CCS(=O)(=O)c2ccccc2)c2ccc(F)cc21,"inconclusive: 15.8 µM [activator, single point]",
